Laboratory results from the antibiotic and cytotoxicity screens of Wong et al. (2023).
This is one part of the list.

Legend:
[1] = tested on: HSkMC (human skeletal muscle cells); assay: cytotoxicity call (relative viability < 0.9); conditions: 10 µM
[2] = tested on: S. aureus RN4220; assay: growth inhibition call (relative growth <= 0.2); conditions: 50 µM

Structure (SMILES)	cytotoxicity call [1]	growth inhibition call [2]
C[C@@H]1CN([C@@H](C)CO)C(=O)c2cc(NC(=O)Nc3ccccc3)ccc2O[C@@H](C)CCCCO[C@H]1CN(C)Cc1ccc(C(F)(F)F)cc1	active	inactive
C[C@@H]1CN([C@H](C)CO)C(=O)c2cc(NS(=O)(=O)c3cn(C)cn3)ccc2O[C@H]1CN(C)Cc1ccc(C(=O)O)cc1	inactive	inactive
O=c1[nH]cc(Nc2ccccc2)c(=O)[nH]1	inactive	inactive
C[C@@H]1CCCCO[C@@H](CN(C)C(=O)Nc2cccc3ccccc23)[C@H](C)CN([C@H](C)CO)C(=O)c2cc(NC(=O)CCC(F)(F)F)ccc2O1	inactive	inactive
C[C@@H]1CN([C@H](C)CO)S(=O)(=O)c2ccc(C#Cc3ccc(F)cc3)cc2O[C@@H]1CN(C)S(C)(=O)=O	inactive	inactive
COc1ccc(NC(=O)N(C)C[C@H]2Oc3ccc(NC(=O)Cn4cnnn4)cc3CC(=O)N([C@@H](C)CO)C[C@@H]2C)cc1	inactive	inactive
O=c1[nH]c(=O)n([C@H]2C[C@H](O)[C@@H](CO)O2)cc1F	inactive	active
C[C@H]1CN([C@@H](C)CO)C(=O)c2c(c3ccccc3n2C)-c2ccccc2CO[C@@H]1CN(C)Cc1ccc(Cl)c(Cl)c1	inactive	inactive
COC(=O)CNC(=O)c1ccc(F)cc1	inactive	inactive
C[C@H]1CCCCO[C@@H](CN(C)S(=O)(=O)c2ccc(Cl)cc2)[C@@H](C)CN([C@@H](C)CO)C(=O)c2cc(NS(=O)(=O)c3ccc(F)cc3)ccc2O1	inactive	inactive
C[C@@H]1CN([C@H](C)CO)C(=O)c2cccc(NC(=O)Nc3cccc4ccccc34)c2O[C@H]1CN(C)C(=O)Nc1ccc2c(c1)OCO2	inactive	inactive
C[C@@H]1CN([C@@H](C)CO)C(=O)c2c(c3ccccc3n2C)-c2ccccc2CO[C@@H]1CN(C)Cc1ccccc1	inactive	inactive
CCCN(C)C[C@H]1OCCCC[C@H](C)Oc2ccc(NS(C)(=O)=O)cc2C(=O)N([C@H](C)CO)C[C@H]1C	inactive	inactive
CN(C)CC#Cc1ccc([C@@H]2[C@H]3CN(C(=O)c4cccnc4)CC(=O)N3[C@H]2CO)cc1	inactive	inactive
CC(C)NC(=O)Nc1ccc2c(c1)CC(=O)N([C@@H](C)CO)C[C@@H](C)[C@H](CN(C)S(=O)(=O)c1cn(C)cn1)O2	inactive	inactive
C[C@@H]1CN([C@H](C)CO)S(=O)(=O)c2ccc(Br)cc2O[C@H]1CN(C)Cc1cccc(C(=O)O)c1	inactive	inactive
Nc1nc(N)c2c(n1)CCCC2	inactive	inactive
C[C@H]1CCCCO[C@@H](CN(C)S(=O)(=O)c2ccc(F)cc2)[C@@H](C)CN([C@@H](C)CO)C(=O)c2cc(NC(=O)Nc3ccc(F)cc3)ccc2O1	inactive	inactive
C[C@@H]1CCCCO[C@H](CN(C)C(=O)CCC(F)(F)F)[C@@H](C)CN([C@@H](C)CO)C(=O)c2cc(NC(=O)Cc3ccccc3)ccc2O1	inactive	inactive

Structure (SMILES)	cytotoxicity call [1]	growth inhibition call [2]
C[C@@H]1CN([C@@H](C)CO)C(=O)c2cccc(NC(=O)c3cnccn3)c2O[C@@H]1CN(C)C(=O)Nc1ccccc1	inactive	inactive
COc1cccc(NC(=O)N(C)C[C@@H]2Oc3cc(C#CC4(O)CCCC4)ccc3S(=O)(=O)N([C@@H](C)CO)C[C@H]2C)c1	inactive	inactive
C[C@H](CO)N1C[C@H](C)[C@@H](CN(C)Cc2ccc(C(=O)O)cc2)Oc2c(NC(=O)C3CCOCC3)cccc2C1=O	inactive	inactive
COc1ccc(S(=O)(=O)N(C)C[C@H]2Oc3ccc(NC(=O)CCC(F)(F)F)cc3CC(=O)N([C@H](C)CO)C[C@@H]2C)cc1	inactive	inactive
C[C@H]1CCCCO[C@H](CN(C)C(=O)NC2CCCCC2)[C@@H](C)CN([C@@H](C)CO)C(=O)c2cc(NC(=O)c3ccncc3)ccc2O1	inactive	inactive
C[C@H](CO)N1C[C@H](C)[C@H](CN(C)C(=O)Nc2ccc3c(c2)OCO3)Oc2ccc(NC(=O)CCN3CCOCC3)cc2C1=O	inactive	inactive
CC(=O)Nc1ccc(C(=O)NN)cc1	inactive	inactive
CO[C@@H]1CN(C)C(=O)c2cc(NC(=O)c3cnccn3)ccc2OC[C@@H](C)N(CCC(F)(F)F)C[C@H]1C	inactive	inactive
C[C@@H]1CN([C@@H](C)CO)S(=O)(=O)c2ccc(C#Cc3ccc(F)cc3)cc2O[C@@H]1CN(C)S(=O)(=O)c1ccc(F)cc1	inactive	inactive
C=CCC[C@H](Cc1ccc(F)cc1)C(=O)OC[C@H](Cc1c[nH]c2ccccc12)NC(=O)[C@H](CC=C)CC(=O)N(CCO)Cc1ccccc1	inactive	inactive
C=CC(C)(O)CCC=C(C)C (centres undefined)	inactive	inactive
C[C@@H]1CN([C@H](C)CO)C(=O)c2cccc(NC(=O)C3CC3)c2O[C@H]1CN(C)S(=O)(=O)c1ccccc1	inactive	inactive
CC(C)NC(=O)Nc1ccc2c(c1)C(=O)N([C@@H](C)CO)C[C@H](C)[C@H](CN(C)Cc1ccc(C(F)(F)F)cc1)OCCCC[C@H](C)O2	inactive	inactive
N[C@@H]1CC[C@@H](CCn2cc(-c3ccccn3)nn2)O[C@H]1CO	inactive	inactive
Cc1ccc(S(=O)(=O)N(C)C[C@H]2Oc3ccc(N(C)C)cc3CC(=O)N([C@@H](C)CO)C[C@H]2C)cc1	inactive	inactive
COc1ccc(NC(=O)N(C)C[C@H]2OCCCC[C@H](C)Oc3ccc(NC(=O)Nc4ccccc4)cc3C(=O)N([C@H](C)CO)C[C@@H]2C)cc1	inactive	inactive
C[C@H]1CN([C@@H](C)CO)C(=O)Cc2cc(NC(=O)Cn3cnnn3)ccc2O[C@@H]1CN(C)S(=O)(=O)c1ccc(F)cc1	inactive	inactive
C[C@@H]1CN([C@H](C)CO)C(=O)c2cc(-c3ccc(C(=O)N(C)C)cc3)cnc2O[C@@H]1CN(C)C(=O)CN(C)C	inactive	inactive
COc1ccc(CCNC(=O)[C@@H]2c3ccccc3C(=O)N(Cc3ccccc3OC)[C@H]2c2ccc(CO)cc2)cc1	inactive	inactive

Structure (SMILES)	cytotoxicity call [1]	growth inhibition call [2]
CCS(=O)(=O)N1[C@H](CO)[C@H](c2ccccc2)C12CN(C(=O)CN(C)C)C2	inactive	inactive
Cc1ccc(S(=O)(=O)Nc2ccc3c(c2)C(=O)N([C@@H](C)CO)C[C@@H](C)[C@@H](CN(C)C(=O)C2CCCCC2)OCCCC[C@H](C)O3)cc1	inactive	inactive
COc1ccc(CN(C)C[C@H]2OCCCC[C@H](C)Oc3ccc(NC(=O)Nc4ccc(F)cc4)cc3C(=O)N([C@H](C)CO)C[C@@H]2C)cc1	inactive	inactive
CC(=O)N(C)CCc1ccc(C)[n+]([O-])c1	inactive	inactive
Cc1noc(C)c1S(=O)(=O)Nc1ccc2c(c1)C(=O)N([C@@H](C)CO)C[C@@H](C)[C@@H](CN(C)Cc1ccc(Oc3ccccc3)cc1)O2	inactive	inactive
C[C@@H]1CN([C@@H](C)CO)C(=O)Cc2cc(NC(=O)Cc3ccccc3)ccc2O[C@H]1CN(C)Cc1ccc(C(F)(F)F)cc1	inactive	inactive
COc1ccc(NC(=O)N(C)C[C@@H]2OCCCC[C@H](C)Oc3ccc(NC(=O)c4ccccc4)cc3C(=O)N([C@H](C)CO)C[C@H]2C)cc1	inactive	inactive
C[C@@H]1CN([C@@H](C)CO)C(=O)c2cc(NC(=O)C3CCCCC3)ccc2O[C@@H](C)CCCCO[C@H]1CN(C)C(=O)C1CCCCC1	inactive	inactive
C[C@@H]1CN([C@@H](C)CO)C(=O)c2cccc(NC(=O)Nc3ccc(C(F)(F)F)cc3)c2O[C@H]1CN(C)C(=O)Nc1ccc(C(F)(F)F)cc1	inactive	inactive
C[C@@H]1CN([C@@H](C)CO)C(=O)c2cccc(NS(=O)(=O)c3cccs3)c2O[C@@H]1CN(C)Cc1ccc(Oc2ccccc2)cc1	inactive	inactive
Cc1ccc(S(=O)(=O)N(C)C[C@@H]2OCCCC[C@@H](C)Oc3ccc(NC(=O)c4ccccc4)cc3C(=O)N([C@@H](C)CO)C[C@H]2C)cc1	inactive	inactive
C=C(/C=C\CNS(=O)(=O)c1ccc(C)cc1)[C@H](O)[C@H]1CCCN1S(=O)(=O)c1ccccc1[N+](=O)[O-]	inactive	inactive
COc1ccccc1C(=O)Nc1ccc2c(c1)C(=O)N(C)[C@@H]1CC[C@H](CC(=O)NCc3ccc(Cl)c(Cl)c3)O[C@H]1CO2	inactive	inactive
COc1ccc(NC(=O)N(C)C[C@H]2OCCCC[C@H](C)Oc3ccc(NS(=O)(=O)c4c(C)noc4C)cc3C(=O)N([C@@H](C)CO)C[C@@H]2C)cc1	inactive	inactive
Cc1ccc(S(=O)(=O)N(C)C[C@@H]2Oc3ccc(NS(C)(=O)=O)cc3CC(=O)N([C@@H](C)CO)C[C@H]2C)cc1	inactive	inactive
COc1ccc(NC(=O)N(C)C[C@H]2Oc3c(NC(=O)CCCCCC(=O)Nc4ccccc4N)cccc3C(=O)N([C@@H](C)CO)C[C@H]2C)cc1	inactive	inactive
Cc1ccc(S(=O)(=O)Nc2ccc3c(c2)CC(=O)N([C@@H](C)CO)C[C@@H](C)[C@@H](CN(C)Cc2ccncc2)O3)cc1	inactive	inactive
Cc1noc(C)c1S(=O)(=O)Nc1ccc2c(c1)CC(=O)N([C@H](C)CO)C[C@@H](C)[C@@H](CN(C)S(=O)(=O)c1ccc(Cl)cc1)O2	inactive	inactive
CCCNC(=O)N1C[C@@H](O)COC[C@H]2O[C@@H](CC(=O)NCCCN3CCOCC3)CC[C@@H]21	inactive	inactive
